Results as given in PubChem BioAssay AID624417 (National Center for Advancing Translational Sciences (NCATS), 2012).
Out of some 410,000 compounds screened, about 6,400 (1.6%) were called active. This list was built around the results that the source calls inconclusive (neither active nor inactive); the mix of calls is not that of the screen. Calls follow the shape of the dose curve; as a rule, active = well fitted inhibition curve with a large enough effect; inconclusive = small, poorly fitted or top-dose-only effect; inactive = no such curve, though single readings can be large or run the other way. No potency is given beside an inconclusive call; the fits are too rough.
Also: nearly all actives have a fitted effect of over 55% in size.
Potency is read from the fitted curve at half-maximal effect; tags tell the direction and shape of the fitted curve.

These molecules were tested against Glucagon-like peptide 1 receptor (Homo sapiens) (UniProt P43220) (assay: qHTS of GLP-1 Receptor Inverse Agonists (Inhibition Mode)). Settings: HEK293 GLP-1R CRE-luciferase, luminescence, 24 h, GLP-1R form is constitutively active; series mostly up to 38.3 µM.
Chain of UniProt P43220 (P43220 whole entry, looked up): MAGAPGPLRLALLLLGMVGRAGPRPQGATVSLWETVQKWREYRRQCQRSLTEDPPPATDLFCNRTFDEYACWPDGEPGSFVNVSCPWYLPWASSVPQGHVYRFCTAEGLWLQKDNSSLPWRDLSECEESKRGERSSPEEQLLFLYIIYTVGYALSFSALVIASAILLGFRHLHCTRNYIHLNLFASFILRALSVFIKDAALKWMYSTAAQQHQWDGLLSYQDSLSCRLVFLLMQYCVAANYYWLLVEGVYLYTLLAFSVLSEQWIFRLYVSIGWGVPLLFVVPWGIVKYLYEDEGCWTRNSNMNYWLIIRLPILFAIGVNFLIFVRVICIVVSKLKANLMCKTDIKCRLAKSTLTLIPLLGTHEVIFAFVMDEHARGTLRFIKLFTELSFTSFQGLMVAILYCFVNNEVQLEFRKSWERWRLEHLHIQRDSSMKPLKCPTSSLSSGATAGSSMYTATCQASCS
Method in brief: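 Seeding at 200 cells/uL, 12 h culture, 24 hr compound treatment, then luciferase reagent and a luminescence read; cells are HEK293 stably expressing a constitutively active GLP-1R plus cAMP-responsive luciferase.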
O=C(NNC(=O)c1ccccc1O)c1ccc(Cl)c(S(=O)(=O)N2CCc3ccccc32)c1 was tested, and the Potency was inconclusive [inhibitor, partial curve, poor fit]. In the case of CCc1cccc(C)c1NC(=O)C1CCCN1S(=O)(=O)c1cccc2nsnc12 (stereo unspecified), the Potency is reported as “inactive”. In the case of CN1CCC(NC(=O)c2cccc(Oc3ccccc3)c2)CC1, the Potency is reported as inconclusive [inhibitor, partial curve, poor fit]. COC(=O)C1=CN(c2ccc(F)cc2)C(N)=C(C#N)C1c1cccc(OC)c1OC (stereo unspecified) was tested, and the Potency was “inactive”. In the case of CN(CCc1ccccc1)C(=O)c1ccc(NC(=O)Cc2ccc(NC(=O)C3CCCN(C(=O)c4ccccc4)C3)cc2)cc1 (stereo unspecified), the Potency is reported as inconclusive [inhibitor, partial curve, poor fit]. For O=C(N/N=C(\c1ccccc1)c1cccnc1)C(O)(c1ccccc1)c1ccccc1, the Potency was “inactive”. With Cc1cccc(N(CC(=O)NCCSCc2ccccc2)S(=O)(=O)c2ccccc2)c1C the Potency was inconclusive [inhibitor, single point]. CCOc1ccccc1C(=O)N[C@H](C(=O)OCc1cc(=O)oc2cc(C)ccc12)C(C)C was tested, and the Potency was inconclusive [inhibitor, single point]. Cc1ccc(C)c(OCC(O)CNC2CCCC2)c1 (stereo unspecified) was tested, and the Potency was inconclusive [inhibitor, partial curve, poor fit]. COc1ccccc1CNCc1cc(OC)c(OC)cc1OC was tested, and the Potency was “inactive”. With COc1ccc(C2(C)NC(=O)N(CC(=O)Nc3ccc(Br)c(C)c3)C2=O)cc1OC (stereo unspecified) the Potency was inconclusive [inhibitor, single point]. For O=C(Nc1nc(-c2ccc3c(c2)OCCO3)cs1)C1CCCC1, the Potency was inconclusive [inhibitor, single point]. In the case of O=C(NC(=S)N1CCN(Cc2ccc3c(c2)OCO3)CC1)c1ccc(Cl)cc1, the Potency is reported as inconclusive [inhibitor, single point]. CC(C)c1ccc(-c2nnn(CCC#N)n2)cc1 was tested, and the Potency was “inactive”. With O=C(Nc1nccs1)c1cc(-c2ccco2)nc2ccccc12 the Potency was “inactive”. In the case of CCCCN(C)C(=O)c1ccc2c(c1)N(Cc1cccc(F)c1)C(=O)c1ccccc1S2, the Potency is reported as inconclusive [inhibitor, partial curve, poor fit]. CCOC(=O)c1scc(-c2ccc(C)cc2)c1S(=O)(=O)Nc1cc(OC)ccc1OC was tested, and the Potency was inconclusive [inhibitor, partial curve]. For Oc1cccc(Nc2nc(NCC3CCCO3)c3ccccc3n2)c1 (stereo unspecified), the Potency was inconclusive [inhibitor, partial curve, poor fit]. In the case of COc1cc(CNC(=O)Nc2nc(C(N)Cc3ccc(C(F)(F)F)cc3)cs2)cc(OC)c1OC (stereo unspecified), the Potency is reported as inconclusive [inhibitor, single point]. In the case of C=CC(=O)Oc1ccc(N2Cc3ccccc3C2=O)cc1, the Potency is reported as “inactive”. COc1ccc(S(=O)(=O)N2CCCCCC2)cc1NC(=O)CCNC(=O)c1ccc(Cl)cc1 was tested, and the Potency was inconclusive [inhibitor, partial curve, poor fit]. With CN(C)CCCC(C)(O)C(C)(C)c1ccccc1 (stereo unspecified) the Potency was inconclusive [inhibitor, partial curve]. O=C(c1ccccc1OC(F)F)N1CCN(S(=O)(=O)c2ccc3c(c2)OCCCO3)CC1 was tested, and the Potency was inconclusive [inhibitor, single point]. Nc1c(C(=O)Nc2ccccc2)sc2nc3c(cc12)CN(Cc1ccccc1)CC3 was tested, and the Potency was inconclusive [inhibitor, single point]. With Cc1cccc(-n2c(=O)c3c4c(sc3n3c(C)nnc23)CCCC4)c1 the Potency was “inactive”. With COc1ccc(NC(=O)c2oc3ccccc3c2NC(=O)C2CCCCC2)c(OC)c1 the Potency was “inactive”. CCCCCCC(=O)N(O)C1CC(=O)N(Cc2ccccc2)C1=O (stereo unspecified) was tested, and the Potency was “inactive”. In the case of Cn1c(Sc2ccc([N+](=O)[O-])cc2C(F)(F)F)nnc1-c1ccccc1, the Potency is reported as inconclusive [inhibitor, single point]. COC(=O)c1ccc(OCC(O)CN2CCN(CC(O)COc3ccc(C(=O)OC)cc3)CC2)cc1 (stereo unspecified) was tested, and the Potency was inconclusive [inhibitor, single point]. In the case of O=C(COc1coc(CN2CCc3ccccc3C2)cc1=O)Nc1cccc(F)c1, the Potency is reported as inconclusive [inhibitor, single point]. With COc1ccc(Cl)cc1NC(=O)CN(C)C(C)C(=O)NC(=O)NC1CCCCC1 (stereo unspecified) the Potency was active: 3.16 µM. For COc1cccc(NC(=O)CNC(=O)[C@@H]2Cc3ccccc3CN2C(=O)OC(C)(C)C)c1, the Potency was inconclusive [inhibitor, partial curve, poor fit]. In the case of COc1ccc(NC(=O)CN(c2ccc(OC)c(Cl)c2)S(=O)(=O)c2ccccc2)cc1, the Potency is reported as inconclusive [inhibitor, partial curve, poor fit]. In the case of COc1ccc(OCC(=O)NNC(=S)NC(=O)C2CC2)cc1, the Potency is reported as “inactive”. In the case of CC(=O)C1=C(O)C(=O)N(c2ccc(Br)cn2)C1c1ccccc1[N+](=O)[O-] (stereo unspecified), the Potency is reported as inconclusive [inhibitor, single point]. With Cc1cc2cc(CN(CC3CCCO3)C(=S)Nc3ccccc3)c(=O)[nH]c2cc1C (stereo unspecified) the Potency was inconclusive [inhibitor, partial curve, poor fit]. With COc1ccc(C2(CNC(=O)C(=O)Nc3ccccc3C)CCCC2)cc1OC the Potency was inconclusive [inhibitor, single point]. COc1ccc(NC(=O)C2CCCN(S(=O)(=O)c3cccc4nonc34)C2)cc1OC (stereo unspecified) was tested, and the Potency was inconclusive [inhibitor, single point]. In the case of CN(C)S(=O)(=O)Oc1ccsc1C(=O)Nc1ccc(Br)cc1, the Potency is reported as inconclusive [inhibitor, partial curve, poor fit]. COc1cc(/C=C2\CCc3ccccc3C2=O)cc(OC)c1OC was tested, and the Potency was inconclusive [inhibitor, single point]. With CC(=O)OCC1(C)CN(c2ccccc2)N(C(=O)c2ccc(F)cc2)C1=O (stereo unspecified) the Potency was inconclusive [inhibitor, partial curve, poor fit].
